Experimental data taken from the supplement of paper PMC12217912.
This is one part of the list. Sequences were assembled here from the parent chain. Values near 0.05 are background.

B1: TEV protease; numbered along this chain (parent)
chain: MGESLFKGPRDYNPISSSICHLTNESDGHTTSLYGIGFGPFIITNKHLFRRNNGTLVVQSLHGVFKVKDTTTLQQHLVDGRDMIIIRMPKDFPPFPQKLKFREPQREERICLVTTNFQTKSMSSMVSDTSCTFPSGDGIFWKHWIQTKDGQCGSPLVSTRDGFIVGIHSASNFTNTNNYFTSVPKNFMELLTNQEAQQWVSGWRLNADSVLWGGHKVFMVKPEEPFQPVKEATQL

Variants of: B1
Test: raw area under fraction-flipped curve 0-4 h after induction (AUC4h, not background-subtracted), DNA-recorder readout of cleavage of the substrate (dimensionless); higher = more cleavage of the substrate by the protease variant
Conditions: temperature: 34 °C; time window: 0-4 h after rhamnose induction
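Also: Bxb1 expression induced with 0.2% (w/v) L-rhamnose at OD600 near 0.5, cultures sampled hourly, flipped fraction per protease–substrate barcode pair counted by paired-end Illumina sequencing.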

| Variant | area with substrate FNLYFQS | area with substrate GNLYFQS | area with substrate HNLYFQS | area with substrate INLYFQS | area with substrate KNLYFQS | area with substrate LNLYFQS | area with substrate MNLYFQS | area with substrate NNLYFQS | area with substrate PNLYFQS | area with substrate SNLYFQS |
| --- | --- | --- | --- | --- | --- | --- | --- | --- | --- | --- |
| MGESLFKGPRDYNPISSSICHLTNESDGHTTSLYGIGFGPFIITNKHLFRRNNGTLVVQSLHGVFKVKDTTTLQQHLVDGRDMIIIRMPKDFPPFPQKLKFREPQREERICLVTTNFQTKSMSSMVSDTSCTFPSGDGIFWKHWIQTKDGQCGSPLVSTRDGFIVGIYSASNFTNTNNYFTSVPKNFMELLTNQEAQQWVSGWRLNADSVLWGGHKVFMVKPEEPFQPVKEATQL [H168Y] | 0.0538 | 0.0538 | 0.0721 | 0.0601 | 0.0625 | 0.0574 | 0.0621 | 0.0615 | 0.0604 | 0.0608 |
| MGESLFKGPRDYNPISSSICHLTNESDGHTTSLYGIGFGPFIITNKHLFRRNNGTLVVQSLHGVFKVKDTTTLQQHLVDGRDMIIIRMPKDFPPFPQKLKFREPQREERICLVTTNFQTKSMSSMVSDTSCTFPSGDGIFWKHWIQTKDGQCGSPLVSTRDGFIVGIASASNFTNTNNYFTSVPKNFMELLTNQEAQQWVSGWRLNADSVLWGGHKVFMVKPEEPFQPVKEATQL [H168A] | 0.0485 | – | – | – | – | – | – | 0.0696 | – | 0.047 |
| MGESLFKGPRDYNPIHSSICHLTNESDGHTTSLYGIGFGPFIITNKHLFRRNNGTLVVQSLHGVFKVKDTTTLQQHLVDGRDMIIIRMPKDFPPFPQKLKFREPQREERICLVTTNFQTKSMSSMVSDTSCTFPSGDGIFWKHWIQTKDGQCGSPLVSTRDGFIVGIHSASNFTNTNNYFTSVPKNFMELLTNQEAQQWVSGWRLNADSVLWGGHKVFMVKPEEPFQPVKEATQL [S16H] | – | – | 0.0631 | 0.0526 | 0.0577 | 0.0771 | 0.0627 | 0.0576 | 0.0755 | 0.0804 |
| MGESLFKGPRDYNPISSSICHLTNESDGHTTSLYGIGFGPFIITNKHLFRRNNGTLVVQSLHGVFKVKDTTTLQQHLVDGRDMIIIRMPKDFPPFPQKLKFREPQREERICLVTTNFQTKSMSSMVSETSCTFPSGDGIFWKHWIQTKDGQCGSPLVSTRDGFIVGIHSASNFTNTNNYFTSVPKNFMELLTNQEAQQWVSGWRLNADSVLWGGHKVFMVKPEEPFQPVKEATQL [D128E] | – | – | 0.0625 | – | 0.0596 | 0.0855 | 0.0907 | – | 0.0735 | – |
| MGESLFKGPRDYNPISSSICHLTNESDGHTTSLYGIGFGPFIITNKHLFRRNNGTLVVQSLHGVFKVKDTTTLQQHLVDGRDMIIIRMPKDFPPFLQKLKFREPQREERICLVTTNFQTKSMSSMVSDTSCTFPSGDGIFWKHWIQTKDGQCGSPLVSTRDGFIVGIHSASNFTNTNNYFTSVPKNFMELLTNQEAQQWVSGWRLNADSVLWGGHKVFMVKPEEPFQPVKEATQL [P96L] | 0.0736 | – | 0.0604 | – | – | – | – | – | 0.07 | 0.0394 |
| MGESLFKGPRDYNPISSSICHLTNESDGHTTSLYGIGFGPFIITNKHLFRRNNGTLVVQSLHGVFKVKDTTTLQQHLVDGRDMIIIRMPKDFPPFYQKLKFREPQREERICLVTTNFQTKSMSSMVSDTSCTFPSGDGIFWKHWIQTKDGQCGSPLVSTRDGFIVGIHSASNFTNTNNYFTSVPKNFMELLTNQEAQQWVSGWRLNADSVLWGGHKVFMVKPEEPFQPVKEATQL [P96Y] | – | – | 0.065 | – | – | 0.0634 | – | 0.0543 | 0.0748 | 0.0684 |
| MGESLFKGPRDYNPISSSICHLTNESDGHTTSLYGIGFGPFIITNKHLFRRNNGTLVVQSLHGVFKVKDTTTLQQHLVDGRDMIIIRMPKDFPPFSQKLKFREPQREERICLVTTNFQTKSMSSMVSDTSCTFPSGDGIFWKHWIQTKDGQCGSPLVSTRDGFIVGIHSASNFTNTNNYFTSVPKNFMELLTNQEAQQWVSGWRLNADSVLWGGHKVFMVKPEEPFQPVKEATQL [P96S] | – | – | 0.0655 | 0.0825 | 0.0993 | 0.0732 | 0.0637 | – | 0.0476 | – |
| MGESLFKGPRDYNPISSSICHLTNESDGHTTSLYGIGFGPFIITNKHLFRRNNGTLVVQSLHGVFKVKDTTHLQQHLVDGRDMIIIRMPKDFPPFPQKLKFREPQREERICLVTTNFQTKSMSSMVSDTSCTFPSGDGIFWKHWIQTKDGQCGSPLVSTRDGFIVGIHSASNFTNTNNYFTSVPKNFMELLTNQEAQQWVSGWRLNADSVLWGGHKVFMVKPEEPFQPVKEATQL [T72H] | – | 0.0542 | 0.0793 | 0.0672 | 0.0439 | 0.0675 | 0.0539 | – | 0.0653 | 0.0653 |
| MGESLFKGPRDYNPISSSICHLTNESDGHTTSLYGIGFGPFIITNKHLFRRNNGTLVVQSLHGVFKVKDTTTLQQHLVDGRDMIIIRMPKDFPPFPQKLKFREPQREERICLVTTNFQTKSMSSMVSDTSCTFPSGDGIFWKHWIQTKDGQCGSPLVSTRDGFIVGIHSASNFTNTNNYFTSVPKNFMELLTNQEAQQWVSGWRLNADSVLWGGHQVFMVKPEEPFQPVKEATQL [K216Q] | – | 0.0593 | 0.0633 | – | 0.0441 | – | – | 0.0607 | 0.0909 | – |
| MGESLFKGPRDYNPISSSICHLTNESDGHTTSLYGIGFGPFIITNKHLFRRNNGTLVVQSLHGTFKVKDTTTLQQHLVDGRDMIIIRMPKDFPPFPQKLKFREPQREERICLVTTNFQTKSMSSMVSDTSCTFPSGDGIFWKHWIQTKDGQCGSPLVSTRDGFIVGIHSASNFTNTNNYFTSVPKNFMELLTNQEAQQWVSGWRLNADSVLWGGHKVFMVKPEEPFQPVKEATQL [V64T] | – | – | 0.0803 | 0.0665 | 0.0866 | 0.0419 | 0.0743 | – | 0.0695 | – |

Same assay, conditions: temperature: 34 °C; time window: 0-4 h after rhamnose induction

| Variant | area with substrate VNLYFQS | area with substrate WNLYFQS | area with substrate YNLYFQS | area with substrate QNLYFQS | area with substrate RNLYFQS | area with substrate TNLYFQS | area with substrate DNLYFQS |
| --- | --- | --- | --- | --- | --- | --- | --- |
| MGESLFKGPRDYNPISSSICHLTNESDGHTTSLYGIGFGPFIITNKHLFRRNNGTLVVQSLHGVFKVKDTTTLQQHLVDGRDMIIIRMPKDFPPFPQKLKFREPQREERICLVTTNFQTKSMSSMVSDTSCTFPSGDGIFWKHWIQTKDGQCGSPLVSTRDGFIVGIYSASNFTNTNNYFTSVPKNFMELLTNQEAQQWVSGWRLNADSVLWGGHKVFMVKPEEPFQPVKEATQL [H168Y] | 0.0666 | 0.0577 | 0.05 | – | – | – | – |
| MGESLFKGPRDYNPIHSSICHLTNESDGHTTSLYGIGFGPFIITNKHLFRRNNGTLVVQSLHGVFKVKDTTTLQQHLVDGRDMIIIRMPKDFPPFPQKLKFREPQREERICLVTTNFQTKSMSSMVSDTSCTFPSGDGIFWKHWIQTKDGQCGSPLVSTRDGFIVGIHSASNFTNTNNYFTSVPKNFMELLTNQEAQQWVSGWRLNADSVLWGGHKVFMVKPEEPFQPVKEATQL [S16H] | – | 0.056 | 0.0731 | 0.0805 | 0.0662 | 0.0676 | – |
| MGESLFKGPRDYNPISSSICHLTNESDGHTTSLYGIGFGPFIITNKHLFRRNNGTLVVQSLHGVFKVKDTTTLQQHLVDGRDMIIIRMPKDFPPFPQKLKFREPQREERICLVTTNFQTKSMSSMVSETSCTFPSGDGIFWKHWIQTKDGQCGSPLVSTRDGFIVGIHSASNFTNTNNYFTSVPKNFMELLTNQEAQQWVSGWRLNADSVLWGGHKVFMVKPEEPFQPVKEATQL [D128E] | 0.0754 | 0.0725 | – | 0.0712 | – | 0.068 | – |
| MGESLFKGPRDYNPISSSICHLTNESDGHTTSLYGIGFGPFIITNKHLFRRNNGTLVVQSLHGVFKVKDTTTLQQHLVDGRDMIIIRMPKDFPPFLQKLKFREPQREERICLVTTNFQTKSMSSMVSDTSCTFPSGDGIFWKHWIQTKDGQCGSPLVSTRDGFIVGIHSASNFTNTNNYFTSVPKNFMELLTNQEAQQWVSGWRLNADSVLWGGHKVFMVKPEEPFQPVKEATQL [P96L] | – | 0.0524 | – | – | – | – | – |
| MGESLFKGPRDYNPISSSICHLTNESDGHTTSLYGIGFGPFIITNKHLFRRNNGTLVVQSLHGVFKVKDTTTLQQHLVDGRDMIIIRMPKDFPPFYQKLKFREPQREERICLVTTNFQTKSMSSMVSDTSCTFPSGDGIFWKHWIQTKDGQCGSPLVSTRDGFIVGIHSASNFTNTNNYFTSVPKNFMELLTNQEAQQWVSGWRLNADSVLWGGHKVFMVKPEEPFQPVKEATQL [P96Y] | 0.0629 | 0.055 | – | – | – | – | – |
| MGESLFKGPRDYNPISSSICHLTNESDGHTTSLYGIGFGPFIITNKHLFRRNNGTLVVQSLHGVFKVKDTTTLQQHLVDGRDMIIIRMPKDFPPFSQKLKFREPQREERICLVTTNFQTKSMSSMVSDTSCTFPSGDGIFWKHWIQTKDGQCGSPLVSTRDGFIVGIHSASNFTNTNNYFTSVPKNFMELLTNQEAQQWVSGWRLNADSVLWGGHKVFMVKPEEPFQPVKEATQL [P96S] | – | 0.0717 | – | – | – | 0.0787 | – |
| MGESLFKGPRDYNPISSSICHLTNESDGHTTSLYGIGFGPFIITNKHLFRRNNGTLVVQSLHGVFKVKDTTHLQQHLVDGRDMIIIRMPKDFPPFPQKLKFREPQREERICLVTTNFQTKSMSSMVSDTSCTFPSGDGIFWKHWIQTKDGQCGSPLVSTRDGFIVGIHSASNFTNTNNYFTSVPKNFMELLTNQEAQQWVSGWRLNADSVLWGGHKVFMVKPEEPFQPVKEATQL [T72H] | – | 0.0728 | 0.0759 | – | – | 0.0609 | – |
| MGESLFKGPRDYNPISSSICHLTNESDGHTTSLYGIGFGPFIITNKHLFRRNNGTLVVQSLHGVFKVKDTTTLQQHLVDGRDMIIIRMPKDFPPFPQKLKFREPQREERICLVTTNFQTKSMSSMVSDTSCTFPSGDGIFWKHWIQTKDGQCGSPLVSTRDGFIVGIHSASNFTNTNNYFTSVPKNFMELLTNQEAQQWVSGWRLNADSVLWGGHQVFMVKPEEPFQPVKEATQL [K216Q] | 0.0895 | – | – | – | – | – | 0.0831 |
| MGESLFKGPRDYNPISSSICHLTNESDGHTTSLYGIGFGPFIITNKHLFRRNNGTLVVQSLHGTFKVKDTTTLQQHLVDGRDMIIIRMPKDFPPFPQKLKFREPQREERICLVTTNFQTKSMSSMVSDTSCTFPSGDGIFWKHWIQTKDGQCGSPLVSTRDGFIVGIHSASNFTNTNNYFTSVPKNFMELLTNQEAQQWVSGWRLNADSVLWGGHKVFMVKPEEPFQPVKEATQL [V64T] | 0.0596 | – | 0.0481 | – | – | – | – |
